The results in this text go back to the supplement of paper PMC9446081.

About 220 (0.56%) of roughly 39,000 compounds showed activity. The list shows a part of the results.
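Note: static incubation at 37 °C against the wild-type strain, values averaged over two biological replicates.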

The test deals with Escherichia coli K-12 BW25113. Kind of test: relative growth (OD600 normalised to plate interquartile mean) (fraction); higher = less growth inhibition, active = 0.2 or less. Conditions: 50 µM; LB; incubation time: overnight (16-24 h).
Regarding `C[C@@H]1CN([C@H](C)CO)C(=O)c2cc(/C=C/c3ccccc3)cnc2O[C@H]1CN(C)C(=O)C1CCOCC1`, the relative growth is inactive: 1.02.

For the compound `C[C@@H]1CN([C@H](C)CO)C(=O)c2cc(NC(=O)Nc3ccc(F)cc3)ccc2O[C@@H](C)CCCCO[C@@H]1CN(C)Cc1ccc(C(F)(F)F)cc1`, the relative growth is inactive: 0.999.

With `CN1C(=O)c2cc(NC(=O)c3cnccn3)ccc2OC[C@H]2O[C@H](CC(=O)N[C@@H]3CCN(Cc4ccccc4)C3)CC[C@@H]21`, the relative growth is inactive: 0.999.

Consider `C[C@@H]1CN([C@@H](C)CO)C(=O)c2cc(NC(=O)NC3CCCCC3)ccc2O[C@@H](C)CCCCO[C@@H]1CN(C)S(=O)(=O)c1cccs1`, for which the relative growth was inactive: 1.01.

On to `COCC#Cc1ccc2c(c1)O[C@H](CN(C)S(=O)(=O)c1cccc(OC)c1)[C@H](C)CN([C@@H](C)CO)S2(=O)=O`, for which the relative growth was inactive: 1.01.

For `CN(C)CC(=O)N1CC(=O)N2[C@@H](CO)[C@@H](c3ccc(C#Cc4cccnc4)cc3)[C@@H]2C1`, the relative growth was inactive: 1.02.

In the case of `C[C@H]1CN([C@@H](C)CO)C(=O)c2cccc(NC(=O)C3CCOCC3)c2O[C@@H]1CN(C)S(=O)(=O)c1cccs1`, the relative growth is inactive: 0.983.

`C[C@@H]1CCCCO[C@H](CN(C)C(=O)NC2CCCCC2)[C@H](C)CN([C@@H](C)CO)C(=O)c2cc(NC(=O)C3CCCCC3)ccc2O1`: the relative growth is inactive: 1.02.

As to `C[C@@H]1CN([C@@H](C)CO)C(=O)CCCn2cc(nn2)CO[C@@H]1CN(C)C(=O)Nc1ccc(N2CCCCC2)cc1`, the relative growth is inactive: 0.969.

Take `Cc1ccc(S(=O)(=O)Nc2ccc3c(c2)C(=O)N([C@H](C)CO)C[C@@H](C)[C@@H](CN(C)Cc2ccc4c(c2)OCO4)OCCCC[C@@H](C)O3)cc1`: the relative growth was inactive: 1.01.

`Cc1ccc(S(=O)(=O)N[C@H]2CC[C@H](CC(=O)N3CCC(Cc4ccccc4)CC3)O[C@H]2CO)cc1`: the relative growth was inactive: 1.02.

Consider `C/N=C1/S[C@@H](CC(N)=O)C(=O)N1C`, for which the relative growth is inactive: 0.974.

As to `O=C(C[C@H]1CC[C@H]2[C@@H](COC[C@H](O)CN2C(=O)Nc2ccc(Cl)cc2)O1)NC1Cc2ccccc2C1`, the relative growth is inactive: 0.878.

Turning to `C[C@H]1CN([C@@H](C)CO)C(=O)c2cc(NC(=O)NC3CCCCC3)ccc2O[C@H]1CN(C)Cc1ccc(C(=O)Nc2ccccc2N)cc1`, the relative growth is inactive: 1.01.

As for `COc1ccc(C#Cc2cnc3c(c2)C(=O)N([C@H](C)CO)C[C@H](C)[C@H](CN(C)S(=O)(=O)c2ccccc2)O3)cc1OC`, the relative growth is inactive: 0.996.

For `C[C@@H]1CN([C@@H](C)CO)S(=O)(=O)c2ccc(/C=C/c3ccccc3)cc2O[C@H]1CN(C)C(=O)CN1CCOCC1`, the relative growth was inactive: 1.01.

Consider `C[C@H](CO)N1C[C@H](C)[C@@H](CN(C)C(=O)Nc2ccccc2)OCCCC[C@H](C)Oc2ccc(NS(=O)(=O)c3ccccc3)cc2C1=O`, for which the relative growth was inactive: 1.02.

Turning to `Cc1noc(C)c1NC(=O)Nc1ccc2c(c1)C(=O)N([C@@H](C)CO)C[C@H](C)[C@@H](CN(C)C(=O)Nc1ccccc1)OCCCC[C@H](C)O2`, the relative growth was inactive: 1.02.

`O=c1c(O[C@@H]2O[C@H](CO)[C@@H](O)[C@H](O)[C@@H]2O[C@H]2OC[C@](O)(CO)[C@H]2O)c(-c2ccc(O)c(O)c2)oc2cc(O)cc(O)c12`: the relative growth is inactive: 1.02.

In the case of `O=P(O)(O)C(O)(Cn1ccnc1)P(=O)(O)O`, the relative growth is inactive: 1.07.

Consider `Cc1ccc(S(=O)(=O)Nc2ccc3c(c2)C(=O)N([C@H](C)CO)C[C@@H](C)[C@H](CN(C)S(=O)(=O)c2cccs2)O3)cc1`, for which the relative growth was inactive: 0.986.

Turning to `O=C(NCCCN1CCOCC1)C(=O)NC1CC1`, the relative growth is inactive: 0.999.

As for `C[C@@H]1CN([C@@H](C)CO)S(=O)(=O)c2ccc(C#CCN(C)C)cc2O[C@@H]1CN(C)S(C)(=O)=O`, the relative growth is inactive: 1.01.

Take `C[C@H](CO)N1C[C@H](C)[C@@H](CN(C)C(=O)Cc2ccccn2)Oc2cc(C#C[C@@H](C)O)ccc2S1(=O)=O`: the relative growth is inactive: 1.01.

With `COc1ccc(S(=O)(=O)N(C)C[C@@H]2Oc3ccc(NC(=O)Cc4ccccc4)cc3CC(=O)N([C@H](C)CO)C[C@@H]2C)cc1`, the relative growth is inactive: 0.974.

In the case of `C[C@@H]1CCCCO[C@H](CN(C)S(=O)(=O)c2ccc(F)cc2)[C@@H](C)CN([C@H](C)CO)C(=O)c2cc(NC(=O)c3ccccc3)ccc2O1`, the relative growth was inactive: 1.04.

As to `Cc1ccc(S(=O)(=O)Nc2ccc3c(c2)C(=O)N([C@H](C)CO)C[C@H](C)[C@H](CN(C)S(=O)(=O)c2ccc(F)cc2)OCCCC[C@@H](C)O3)cc1`, the relative growth was inactive: 1.02.

Turning to `C[C@H](CO)N1C[C@H](C)[C@@H](CN(C)S(=O)(=O)c2cn(C)cn2)Oc2c(NS(=O)(=O)c3cn(C)cn3)cccc2C1=O`, the relative growth is inactive: 0.997.

With `C[C@H]1CCCCO[C@H](CN(C)C(=O)Nc2ccc3c(c2)OCO3)[C@@H](C)CN([C@@H](C)CO)C(=O)c2cc(NC(=O)c3ccccc3)ccc2O1`, the relative growth was inactive: 1.02.

`C[C@@H]1CCCCO[C@H](CN(C)S(=O)(=O)c2cn(C)cn2)[C@H](C)CN([C@@H](C)CO)C(=O)c2cc(NS(=O)(=O)c3cccs3)ccc2O1`: the relative growth was inactive: 1.01.

Consider `CC(C)c1c(O)ccc2c1CCC1C(C)(C=O)CCCC21C` (centres undefined), for which the relative growth was inactive: 0.976.

Take `O=C(O)[C@@H](O)[C@H](O)C(=O)O`: the relative growth was inactive: 1.02.

For `COc1cccc(C#Cc2cnc3c(c2)C(=O)N([C@@H](C)CO)C[C@@H](C)[C@@H](CN(C)C(=O)C2CCOCC2)O3)c1`, the relative growth was inactive: 0.975.

For the compound `CCCCCCCCCCCC(=O)OCN1C(=O)CCc2ccc(OCCCCN3CCN(c4cccc(Cl)c4Cl)CC3)cc21`, the relative growth was inactive: 1.05.

Turning to `C[C@H]1CN([C@@H](C)CO)C(=O)c2cc(NC(=O)Nc3cccc4ccccc34)ccc2O[C@H]1CN(C)Cc1ccc(C(F)(F)F)cc1`, the relative growth was inactive: 0.989.

Consider `C#CC1(OC(C)=O)CCC2C3CCC4=CC(=O)CCC4C3CCC21C` (centres undefined), for which the relative growth was inactive: 1.1.

Regarding `COc1ccccc1CNC(=O)C[C@H]1CC[C@H]2[C@@H](COC[C@@H](O)CN2C(=O)Nc2ccc(F)cc2)O1`, the relative growth was inactive: 0.957.

With `CC(C)(CO)[C@@H](O)C(=O)NCCC(=O)O`, the relative growth was inactive: 1.02.

In the case of `Cc1noc(C)c1NC(=O)Nc1ccc2c(c1)C(=O)N([C@@H](C)CO)C[C@@H](C)[C@H](CN(C)Cc1ccc(-c3ccccc3)cc1)O2`, the relative growth is inactive: 1.02.

As to `COCC(=O)Nc1ccc2c(c1)C(=O)N(C)C[C@H](OC)[C@H](C)CN(C(=O)Cc1ccccn1)[C@H](C)CO2`, the relative growth was inactive: 1.01.

Turning to `COc1cccc(-c2cnc3c(c2)C(=O)N([C@H](C)CO)C[C@H](C)[C@H](CN(C)S(=O)(=O)c2ccccc2)O3)c1`, the relative growth is inactive: 0.988.

Take `COc1ccc([Si](C)(C)[C@H]2[C@H](CCn3cc([C@H](O)c4ccccc4)nn3)O[C@@]3(C(=O)N(Cc4cccc(N5CCC5=O)c4)c4ccccc43)[C@@H]2C)cc1`: the relative growth was inactive: 1.04.

With `CC1=C(CCC(=O)O)c2cc3[nH]c(cc4nc(cc5[nH]c(cc1n2)c(C)c5C(C)O)C(C)=C4C(C)O)c(C)c3CCC(=O)O` (centres undefined), the relative growth was inactive: 1.06.

Consider `Cc1ccc(S(=O)(=O)N(C)C[C@@H]2OCCCC[C@@H](C)Oc3ccc(NS(C)(=O)=O)cc3C(=O)N([C@@H](C)CO)C[C@@H]2C)cc1`, for which the relative growth was inactive: 0.996.

Regarding `C[C@H](CO)N1C[C@H](C)[C@H](CN(C)S(=O)(=O)c2cn(C)cn2)Oc2ccc(NS(=O)(=O)c3cccs3)cc2CC1=O`, the relative growth was inactive: 1.01.

Regarding `CCC(C)C(=O)OC1CC(C)C=C2C=CC(C)C(CCC3CC(O)CC(=O)O3)C21` (centres undefined), the relative growth is inactive: 0.973.

Turning to `C[C@H]1CN([C@@H](C)CO)C(=O)c2cccc(NC(=O)Nc3ccc(F)cc3)c2O[C@H]1CN(C)S(C)(=O)=O`, the relative growth was inactive: 0.989.

In the case of `C[n+]1cc2c3c(ccc2c2ccc4cc5c(cc4c21)OCO5)OCO3.[Cl-]`, the relative growth was inactive: 0.67.

Consider `CNC[C@H]1Oc2cc(C#CC(C)(C)O)ccc2S(=O)(=O)N([C@H](C)CO)C[C@@H]1C`, for which the relative growth is inactive: 1.01.

Take `C[C@H](CO)N1C[C@H](C)[C@@H](CN(C)C(=O)Nc2ccc(N3CCCCC3)cc2)OCc2cn(nn2)CCCC1=O`: the relative growth is inactive: 0.993.

With `Cc1ccc(S(=O)(=O)N(C)C[C@H]2Oc3ccc(NS(=O)(=O)c4cccs4)cc3CC(=O)N([C@@H](C)CO)C[C@H]2C)cc1`, the relative growth was inactive: 1.02.

For `C[C@@H]1CCCCO[C@@H](CN(C)C(=O)c2ccccc2)[C@@H](C)CN([C@@H](C)CO)C(=O)c2cc(NS(=O)(=O)c3ccc(F)cc3)ccc2O1`, the relative growth is inactive: 1.

Take `C[C@@H]1CN([C@H](C)CO)C(=O)c2cc(NC(=O)Nc3cccc4ccccc34)ccc2O[C@H]1CN(C)Cc1ccc(C(F)(F)F)cc1`: the relative growth is inactive: 1.01.

As for `C[C@@H]1CN([C@@H](C)CO)C(=O)c2c(c3ccccc3n2C)-c2ccccc2CO[C@@H]1CN(C)CC1CCCCC1`, the relative growth is inactive: 0.999.

For `C[C@@H]1CN([C@@H](C)CO)C(=O)c2cc(NS(=O)(=O)c3ccc(F)cc3)ccc2O[C@@H](C)CCCCO[C@@H]1CN(C)C(=O)Nc1ccc2c(c1)OCO2`, the relative growth was inactive: 1.01.

Regarding `C[C@@H]1CN([C@@H](C)CO)C(=O)Cc2cc(NC(=O)Nc3ccc4c(c3)OCO4)ccc2O[C@@H]1CN(C)Cc1ccc(-c2ccccc2)cc1`, the relative growth was inactive: 1.05.

Take `C[C@H](CO)N1C[C@H](C)[C@H](CN(C)S(=O)(=O)c2ccccc2)Oc2ccc(NS(=O)(=O)c3cccs3)cc2C1=O`: the relative growth is inactive: 1.01.

Take `C[C@@H]1CN([C@H](C)CO)C(=O)c2cc(NC(=O)Cc3ccccc3)ccc2O[C@@H](C)CCCCO[C@H]1CN(C)C(=O)CCC(F)(F)F`: the relative growth is inactive: 0.981.

As to `CC(C)NC(=O)N(C)C[C@H]1Oc2ccc(NS(=O)(=O)c3ccc(Cl)cc3)cc2CC(=O)N([C@H](C)CO)C[C@@H]1C`, the relative growth is inactive: 0.995.
